Measurements reported in ChEMBL document CHEMBL1201862, “PubChem BioAssay data set” (2004).
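96-well plates; 48 h exposure; 5 concentrations. Endpoints by linear interpolation between flanking doses. Not reached: highest tested concentration assigned. GI50 is the concentration that inhibits growth by half.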 Active and inactive are the calls of the source. Cut-off read from the data, not from the text of the source: active = GI50 up to about 1.1 µM and inactive = higher.

system: NCI-H322M; assay: growth of human tumour cells (NCI), 48 h

Row | Structure (SMILES) | GI50
1 | CN(/N=C/c1ccc(OCc2cccc(COc3ccc(C=O)cc3)n2)cc1)c1cnn(-c2ccc(Cl)cc2Cl)c(=O)c1Cl | inactive: > 100 µM
2 | O=c1n(-c2ccccc2)c(=O)n2n1C1CCC2CC1 | inactive: > 100 µM
3 | N/N=c1\c2ccccc2c2cc3c(cc12)/c(=N/N)c1ccccc13 | inactive: > 100 µM
4 | C=C1CC(CCCl)(c2ccccc2)OC1=O (configuration not stated) | inactive: > 92.7 µM
5 | COc1ccc(-c2ccc(CC(=O)O)cc2)cc1OC | inactive: > 100 µM
6 | COc1cc([C@H]2c3cc4c(cc3[C@H](NCc3ccc([N+](=O)[O-])cc3)C3COC(=O)[C@H]32)OCO4)cc(OC)c1O (some centres not stated) | inactive: 7.94 µM
7 | [N-]=[N+]=Nc1c(-c2ccccc2)c(=O)n(-c2ccccc2)c2ccccc12 | inactive: 22.2 µM
8 | Cn1cc(-c2cnc(-c3cn(C)c4ccccc34)cn2)c2ccccc21 | active: 0.804 µM
9 | O=C1/C(=C\c2ccccc2)C(NC2CCCCC2)c2ccccc21 (configuration not stated) | inactive: 13 µM
10 | CC(=O)NC1=C(C)C(=O)c2c(nc3n2CC[C@H]3OC(C)=O)C1=O | inactive: 4.74 µM
11 | COc1cc(NCc2ccc3oc(=O)c(-c4ccccc4)nc3c2)cc(OC)c1OC | inactive: > 10 µM
12 | CSC(C1c2ccccc2N(c2ccc(C)cc2)c2[nH]c(=O)n(C)c(=O)c21)S(=O)(=O)c1ccc(C)cc1 (configuration not stated) | inactive: > 100 µM
13 | O=C1N[C@@H]2c3c(Br)sc(Br)c3C(=O)[C@@H]2N1 | inactive: 7.55 µM
14 | O=c1ccc(=O)c2c1c1[nH]c3ccccc3c1c1c(=O)c3ccccc3c(=O)c21 | inactive: > 10 µM
15 | NNC(=O)CCCCCCCC(=O)O | inactive: > 100 µM
16 | CN(C)C(=O)C(F)(F)C(c1ccc(F)cc1)C1C(=O)N(C)C(=O)N(C)C1=O (configuration not stated) | inactive: > 100 µM
17 | Clc1ccc(C2=NOC(C3CCCCC3)C2)cc1 (configuration not stated) | inactive: > 100 µM
18 | Cc1ccc(Cl)c2c(=O)c3ccc([N+](=O)[O-])cc3sc12 | inactive: > 100 µM
19 | CO/C(N)=C(C#N)/N=C/c1ccsc1 | inactive: > 100 µM
20 | Cc1nc2n(c1/C=C1/C(=O)Nc3ccccc31)CCS2 | inactive: 59 µM
21 | CCOC(=O)c1csc(NC(=O)CN2CCCCC2)n1 | inactive: > 100 µM
22 | Oc1cnc2c(O)cccc2c1 [JINEOL] | inactive: 35.3 µM
23 | C=C1C(=O)O[C@H]2[C@H]3O[C@@H](C[C@@H]12)[C@@]1(C)CC[C@H](O1)C(C)=CCC[C@H]3C | inactive: 4.92 µM

Row | Structure (SMILES) | GI50
24 | C/C(=N\NS(=O)(=O)c1ccccc1)c1ccc(Cl)c(Cl)c1 | inactive: > 100 µM
25 | O=[N+]([O-])c1ccc2c(c1)Nc1c3ccccc3nc3cccc-2c13 | inactive: 14 µM
26 | O=C1C(=C2CCCC2)CCC1CN1CCCCC1 (configuration not stated) | inactive: > 100 µM
27 | CC(C)C(C)C(C)(C)P(C)(C)=O (configuration not stated) | inactive: > 100 µM
28 | O=C(NCCCN1CCN(CCCNC(=O)Nc2cccc3ccccc23)CC1)Nc1cccc2ccccc12 | inactive: 17.5 µM
29 | CC1(C)CC(=O)C(=CNc2nc(-c3ccc(Br)cc3)cs2)C(=O)C1 | inactive: 35.6 µM
30 | CC(=NNC(=S)Nc1cccc(C)c1)c1cccc(C(C)=NNC(=S)Nc2cccc(C)c2)n1 | inactive: 2.88 µM
31 | CO/N=C(\C(=O)N(C)n1cnnc1)c1csc(NC(c2ccccc2)(c2ccccc2)c2ccccc2)n1 | inactive: > 10 µM
32 | CC(=O)OC(Cc1cc(C=C(C(F)(F)F)C(F)(F)F)cc(C)n1)(C(F)(F)F)C(F)(F)F | inactive: 2 µM
33 | Cc1cc(=O)n2c3c(c4c(cc13)c(CN(C)C)cc(=O)n4C)OC2 | inactive: 16.6 µM
34 | COc1ccc(C(=C(C#N)C#N)c2ccc(OC)cc2)cc1 | inactive: > 100 µM
35 | Nc1nc(=O)c2c([nH]1)NCC(CNc1ccc(C(=O)N[C@@H](CCC(=O)O)C(=O)O)cc1)N2C=O (some centres not stated) [LEUCOVORIN CALCIUM] | inactive: > 125 µM
36 | CC(=O)C1Cn2c(=O)c3cc4ccccc4cc3c(=O)n2C=C1C (configuration not stated) | inactive: > 100 µM
37 | Cc1c(Cl)ccc2[s+]snc12 | inactive: 94.4 µM
38 | O=[N+]([O-])c1ccc2nc(-c3ccccn3)c(-c3ccccn3)nc2c1 | inactive: > 100 µM
39 | COC(=O)CN(CC1O[C@@H]2OC(C)(C)O[C@@H]2C1N=[N+]=[N-])C(=O)OCc1ccccc1 (some centres not stated) | inactive: > 100 µM
40 | CC(=O)OCC(OC(C)=O)C(OC(C)=O)C(OC(C)=O)C(C=NN(C(C)=O)S(=O)(=O)c1ccc(/C=C2\NC(=O)N(C)C2=O)cc1)OC(C)=O (configuration not stated) | inactive: 53.8 µM
41 | CCN1CCC(O)(c2ccccc2)C(C(=O)c2ccccc2)C1 (configuration not stated) | inactive: > 96.4 µM
42 | COc1ccc(C/C(=N/O)C(=O)NCCc2cc(Br)c(OCCCN(C)C)c(Br)c2)cc1Br [APLYSAMINE 2] | inactive: 16.8 µM
43 | Cc1cc([N+](=O)[O-])ccc1Sc1c2ccccc2nc2cc(Cl)ccc12 | inactive: > 100 µM
44 | CSc1nc2c(c(=O)n1C)N=C(c1ccc(Cl)cc1)CC(c1ccccc1)N2 (configuration not stated) | inactive: 30.7 µM
45 | C=C(C)OCOCCOC | inactive: > 100 µM
46 | CN1N=C2c3ccccc3OC(c3ccccc3)[C@H]2C1c1ccccc1 (some centres not stated) | inactive: 87.1 µM

Row | Structure (SMILES) | GI50
47 | CSc1nc(Cl)c2c(n1)Sc1ncnn1C2O (configuration not stated) | inactive: 16.1 µM
48 | COc1ccc(-n2c(CCC(=O)O)nc3c2C(=O)c2ccccc2C3=O)cc1 | inactive: > 100 µM
49 | CC1C2=CC=C(O2)C(C)(C)C2=CC=C(O2)C(C)(C)C2=CC=C(O2)C(C)(C)C2=CC=C1O2 | inactive: > 100 µM
50 | C[Si](C)(c1ccc(C(=O)O)cc1)c1ccc(C(=O)O)cc1 | inactive: > 100 µM
51 | Cc1ccc(Nc2nc3c(s2)C(=O)c2ccccc2C3=O)cc1 | inactive: 1.43 µM
52 | O=c1nc(/C=C/c2ccccc2Cl)cc2n1CCN2CCO | inactive: 43.1 µM
53 | CCOC(=O)C(=O)Nc1ccccc1OCC | inactive: > 100 µM
54 | COC1=CC(=O)c2c(O)c3c(c(O)c2C1=O)CC(C)(O)OC3 (configuration not stated) [FUSARUBIN] | inactive: 2.76 µM
55 | O=C1CC(S(=O)(=O)O)C=C1Nc1cccc(Cl)c1 (configuration not stated) | inactive: > 100 µM
56 | Cc1cccc(/N=N/C(=N\NC(=O)c2cc(Cl)ccc2O)c2ccc(N(CCC#N)CCC#N)cc2C)c1 | inactive: 23.8 µM
57 | COc1nc2c(c(=O)n1C)N=C(c1ccc(Cl)cc1)CC(c1ccccc1)N2 (configuration not stated) | inactive: 30.4 µM
58 | Cc1cc(=O)oc2cc(OC(=O)Nc3ccc(Cl)c(Cl)c3)ccc12 | inactive: 35.3 µM
59 | CC(=O)OCC1OC(n2cc([N+](=O)[O-])c(=O)[nH]c2=O)C(OC(C)=O)C(OC(C)=O)C1OC(C)=O (configuration not stated) | inactive: > 100 µM
60 | CCSc1nc(N2CCOCC2)c2cn[nH]c2n1 | inactive: > 100 µM
61 | CCOC(=O)C(NC(=O)OC(C)(C)C)C(=O)OCC | inactive: > 100 µM
62 | COCCN(C(=O)c1ccccc1)C1CCC(=O)c2[nH]c3ccccc3c21 (configuration not stated) | inactive: 8.13 µM
63 | COc1ccc(CC2COc3cc(OC)cc(OC)c3C2=O)cc1 (configuration not stated) | inactive: 28.2 µM
64 | COc1ccc(C2=NN(c3ccccc3)C(c3cc4cc(Br)ccc4nc3Cl)C2)cc1 (configuration not stated) | inactive: > 25 µM
65 | C=CCOc1cc2c(cc1C(C)c1ccc(OC)cc1)OCO2 (configuration not stated) | inactive: 2.3 µM
66 | C=C(CO)C(=O)OC1CC(=C)C2CC(O)C(C)C2C2OC(=O)C(=C)C12 (configuration not stated) | inactive: 49.8 µM
67 | C=CCCC1(C)CCCNC1=S (configuration not stated) | inactive: > 100 µM
68 | Cc1ccc(-c2[nH]c(=O)n(C3OC(CO)C(O)C(O)C3O)c(=O)c2C#N)cc1 (configuration not stated) | inactive: > 100 µM
69 | O=C(Oc1cccnc1)c1cc2cc(CCl)ccc2oc1=O | inactive: > 100 µM

Row | Structure (SMILES) | GI50
70 | Clc1ccc(C2=Cc3nc2c(-c2ccccc2)c2ccc([nH]2)c(-c2ccccc2)c2nc(c(-c4ccccc4)c4ccc([nH]4)c3-c3ccccc3)C=C2)cc1 | inactive: > 62.5 µM
71 | Cc1cc(C)c([S@@](=O)O[C@@H]2[C@H]3OC(C)(C)O[C@H]3O[C@@H]2[C@H]2COC(C)(C)O2)c(C)c1 | inactive: 51.8 µM
72 | NC(=O)c1c(-c2ccccc2)c(-c2ccccc2)cc2c(=O)c3ccccc3[nH]c12 | inactive: 30.9 µM
73 | CNC(=S)N1CCN(C(C)=O)C1=S | inactive: 44.5 µM
74 | C=CCCC1CCCCNC1=S (configuration not stated) | inactive: > 10 µM
75 | N=C(N)N/N=C/c1c(-c2ccc(Cl)c([N+](=O)[O-])c2)nc2sc(Cl)cn12 | inactive: 3.39 µM
76 | CC(O)(CCCCCl)c1nc2ccccc2s1 (configuration not stated) | inactive: > 100 µM
77 | O=C1CCC(=O)c2cc(Br)ccc2N1 | inactive: > 100 µM
78 | C[C@]12CC[C@H](O)C[C@@H]1CC[C@@H]1[C@@H]2CC[C@]2(C)[C@@H](C3=CC(=O)OC3)CC[C@]12O | inactive: 3.21 µM
79 | O=C1C(Cl)C(c2cccc(O)c2)N1n1cnc2ccccc2c1=O (configuration not stated) | inactive: > 100 µM
80 | CCCCCC(C)C[C@H]1CO[C@H](c2ccc[nH]2)N[C@H]1C(=O)OC (some centres not stated) | inactive: > 100 µM
81 | NC1=NC(c2ccccc2)CC(c2cc(Cl)cc(Br)c2O)=N1 (configuration not stated) | inactive: 18.7 µM
82 | CC(=O)OCC1OC(N2C(S)=C(C#N)C(c3ccco3)C(C(C)=O)=C2c2ccccc2)C(OC(C)=O)C(OC(C)=O)C1OC(C)=O (configuration not stated) | inactive: 72.1 µM
83 | C#C[C@@H](OC(=O)c1ccc([N+](=O)[O-])cc1)[C@@H]1C[C@H]2O[C@@H]([C@H](C/C=C/CC)OC(=O)c3ccc([N+](=O)[O-])cc3)C[C@H]2O1 | inactive: > 100 µM
84 | CO/C=C(/C(=O)OC)c1ccccc1Oc1c(F)c(F)c(F)c(F)c1F | inactive: 31.3 µM
85 | CCOC(=O)c1sc2nc(SC)nc3c2c1N=CN3c1ccc(Br)cc1 | inactive: > 100 µM
86 | COc1ccc(OC)c(C2CCc3cnc4nc(N)nc(N)c4c3C2)c1 (configuration not stated) | inactive: > 100 µM
87 | CCc1c2c(nc3ccc(O)cc13)-c1cc3c(c(=O)n1C2)COC(=O)[C@]3(O)CC [7-ETHYL-10-HYDROXYCAMPTOTHECIN] | active: 0.00187 µM
88 | O=C1OC(=O)C2CCCC3CCCC1C32 (configuration not stated) | inactive: > 100 µM
89 | O=C(O)CCNCCCCNCCC(=O)O | inactive: > 100 µM
90 | COc1cccc(C2c3cc4c(cc3OC(C)(N3CCCC3)C2C)OCO4)c1O (configuration not stated) | inactive: 2.19 µM
91 | Cc1cc(NS(=O)(=O)c2ccc(Nc3c4ccccc4nc4c(C(=O)Nc5ccc(S(N)(=O)=O)cc5)cccc34)cc2)no1 | inactive: 25.2 µM
92 | CC1(C)CC2=NO[Se]3=C2C(=NO3)C1 | inactive: 2.4 µM
